Results as given in article PMC9911399, “Two distinct binding modes provide the RNA-binding protein RbFox with extraordinary sequence specificity”.
Positions count from the first letter of the chain named. This is one part of the list.

T1: RBFOX1 RRM RbFoxmut (Fox-RRM*) (Homo sapiens, UniProt Q9NWB1 109-208, R118D;E147R;N151S;E152T)
T1 sequence: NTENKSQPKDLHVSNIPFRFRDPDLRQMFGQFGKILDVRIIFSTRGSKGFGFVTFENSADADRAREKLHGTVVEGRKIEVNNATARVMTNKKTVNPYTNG

B1: GACGUCU (DNA:RNA)
RNA: GGGAGACCGGAAUUCAGAUUGUCCGACGUCUUUAAAUCCCGUCGUAGCCACCA
DNA 1: CAATCTGAATTCCGGTCTCCC
DNA 2: TGGTGGCTACGACGGGATT
B2: CGCCAGC (DNA:RNA)
RNA: B1 RNA with G25C, A26G, G28C, U29A, C30G, U31C
DNA 1: CAATCTGAATTCCGGTCTCCC
DNA 2: TGGTGGCTACGACGGGATT
B3: GGAACUU (DNA:RNA)
RNA: B1 RNA with A26G, C27A, G28A, U29C, C30U
DNA 1: CAATCTGAATTCCGGTCTCCC
DNA 2: TGGTGGCTACGACGGGATT
B4: UAGGCCG (DNA:RNA)
RNA: B1 RNA with G25U, C27G, U29C, U31G
DNA 1: CAATCTGAATTCCGGTCTCCC
DNA 2: TGGTGGCTACGACGGGATT
B5: UCUAAUA (DNA:RNA)
RNA: GGGAGACCGGAAUUCAGAUUGUCCUCUAAUAUUAAAUCCCGUCGUAGCCACCA
DNA 1: CAATCTGAATTCCGGTCTCCC
DNA 2: TGGTGGCTACGACGGGATT
B6: AUGUGAU (DNA:RNA)
RNA: B1 RNA with G25A, A26U, C27G, G28U, U29G, C30A
DNA 1: CAATCTGAATTCCGGTCTCCC
DNA 2: TGGTGGCTACGACGGGATT
B7: CAUUGGA (DNA:RNA)
RNA: B5 RNA with U25C, C26A, A28U, A29G, U30G
DNA 1: CAATCTGAATTCCGGTCTCCC
DNA 2: TGGTGGCTACGACGGGATT
B8: GUAGCGC (DNA:RNA)
RNA: B1 RNA with A26U, C27A, U29C, C30G, U31C
DNA 1: CAATCTGAATTCCGGTCTCCC
DNA 2: TGGTGGCTACGACGGGATT
B9: AAUUUGC (DNA:RNA)
RNA: B1 RNA with G25A, C27U, G28U, C30G, U31C
DNA 1: CAATCTGAATTCCGGTCTCCC
DNA 2: TGGTGGCTACGACGGGATT
B10: CCAUGUA (DNA:RNA)
RNA: B5 RNA with U25C, U27A, A28U, A29G
DNA 1: CAATCTGAATTCCGGTCTCCC
DNA 2: TGGTGGCTACGACGGGATT
B11: UGCGUCC (DNA:RNA)
RNA: B1 RNA with G25U, A26G, U31C
DNA 1: CAATCTGAATTCCGGTCTCCC
DNA 2: TGGTGGCTACGACGGGATT
B12: UAGGUCU (DNA:RNA)
RNA: B1 RNA with G25U, C27G
DNA 1: CAATCTGAATTCCGGTCTCCC
DNA 2: TGGTGGCTACGACGGGATT
B13: UGGGCAG (DNA:RNA)
RNA: B1 RNA with G25U, A26G, C27G, U29C, C30A, U31G
DNA 1: CAATCTGAATTCCGGTCTCCC
DNA 2: TGGTGGCTACGACGGGATT
B14: UACAGAG (DNA:RNA)
RNA: B1 RNA with G25U, G28A, U29G, C30A, U31G
DNA 1: CAATCTGAATTCCGGTCTCCC
DNA 2: TGGTGGCTACGACGGGATT
B15: UCGCAAU (DNA:RNA)
RNA: B5 RNA with U27G, A28C, U30A, A31U
DNA 1: CAATCTGAATTCCGGTCTCCC
DNA 2: TGGTGGCTACGACGGGATT
B16: UAUGCCC (DNA:RNA)
RNA: B1 RNA with G25U, C27U, U29C, U31C
DNA 1: CAATCTGAATTCCGGTCTCCC
DNA 2: TGGTGGCTACGACGGGATT
B17: CAUGCUU (DNA:RNA)
RNA: B1 RNA with G25C, C27U, U29C, C30U
DNA 1: CAATCTGAATTCCGGTCTCCC
DNA 2: TGGTGGCTACGACGGGATT
B18: UGUGCGA (DNA:RNA)
RNA: B5 RNA with C26G, A28G, A29C, U30G
DNA 1: CAATCTGAATTCCGGTCTCCC
DNA 2: TGGTGGCTACGACGGGATT
B19: UUCAUCA (DNA:RNA)
RNA: B1 RNA with G25U, A26U, G28A, U31A
DNA 1: CAATCTGAATTCCGGTCTCCC
DNA 2: TGGTGGCTACGACGGGATT
B20: GCCCUAG (DNA:RNA)
RNA: B1 RNA with A26C, G28C, C30A, U31G
DNA 1: CAATCTGAATTCCGGTCTCCC
DNA 2: TGGTGGCTACGACGGGATT
B21: UAGCUUU (DNA:RNA)
RNA: B1 RNA with G25U, C27G, G28C, C30U
DNA 1: CAATCTGAATTCCGGTCTCCC
DNA 2: TGGTGGCTACGACGGGATT
B22: GACGUAU (DNA:RNA)
RNA: B1 RNA with C30A
DNA 1: CAATCTGAATTCCGGTCTCCC
DNA 2: TGGTGGCTACGACGGGATT
B23: AUCGCUU (DNA:RNA)
RNA: B1 RNA with G25A, A26U, U29C, C30U
DNA 1: CAATCTGAATTCCGGTCTCCC
DNA 2: TGGTGGCTACGACGGGATT
B24: GUCACGC (DNA:RNA)
RNA: B1 RNA with A26U, G28A, U29C, C30G, U31C
DNA 1: CAATCTGAATTCCGGTCTCCC
DNA 2: TGGTGGCTACGACGGGATT
B25: ACUGCGC (DNA:RNA)
RNA: B5 RNA with U25A, A28G, A29C, U30G, A31C
DNA 1: CAATCTGAATTCCGGTCTCCC
DNA 2: TGGTGGCTACGACGGGATT
B26: ACGUGUU (DNA:RNA)
RNA: B5 RNA with U25A, U27G, A28U, A29G, A31U
DNA 1: CAATCTGAATTCCGGTCTCCC
DNA 2: TGGTGGCTACGACGGGATT
B27: UUCUAAG (DNA:RNA)
RNA: B5 RNA with C26U, U27C, A28U, U30A, A31G
DNA 1: CAATCTGAATTCCGGTCTCCC
DNA 2: TGGTGGCTACGACGGGATT
B28: UACCGUA (DNA:RNA)
RNA: B5 RNA with C26A, U27C, A28C, A29G
DNA 1: CAATCTGAATTCCGGTCTCCC
DNA 2: TGGTGGCTACGACGGGATT
B29: AAGAGAG (DNA:RNA)
RNA: B1 RNA with G25A, C27G, G28A, U29G, C30A, U31G
DNA 1: CAATCTGAATTCCGGTCTCCC
DNA 2: TGGTGGCTACGACGGGATT
B30: UGGGCGU (DNA:RNA)
RNA: B1 RNA with G25U, A26G, C27G, U29C, C30G
DNA 1: CAATCTGAATTCCGGTCTCCC
DNA 2: TGGTGGCTACGACGGGATT
B31: UUCUACA (DNA:RNA)
RNA: B5 RNA with C26U, U27C, A28U, U30C
DNA 1: CAATCTGAATTCCGGTCTCCC
DNA 2: TGGTGGCTACGACGGGATT

These binders were tested against T1, RBFOX1 RRM RbFoxmut (Fox-RRM*) (assay: EMSA; HiTS-Eq, 1 nM pool, 10 min; buffer printed only for the single-RNA assays: 10 mM Tris pH 7.5, 150 mM NaCl, 3.4 mM EDTA, 0.001% NP-40, 30 C). Conditions: tags: His6 N-terminal (pET28a); label: 5' 32P.
In short: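 Purified RbFox RRM, wild type or mutant, was incubated for 10 min in 50 µL with 1 nM of a 5′-radiolabelled RNA pool carrying 7 randomized nucleotides, whose flanks were annealed to DNA oligonucleotides, over a series of increasing protein concentrations. Unbound RNA was resolved on 8% native PAGE, cut out, reverse-transcribed, barcoded by PCR and sequenced on an Illumina HiSeq 2500. Relative association constants were derived from changes in read counts for each RNA species versus the control reaction and normalised to the cognate motif.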

First: B1
Second: B2
The binding signal of the first is lower: 0.0691 KA relative to UGCAUGU for the first, 0.109 KA relative to UGCAUGU for the second.

Compared with B3, B4 is higher in binding signal: 0.0587 KA relative to UGCAUGU for the first, 0.111 KA relative to UGCAUGU for the second.

First: B5
Second: B6
The binding signal of the first is lower: 0.108 KA relative to UGCAUGU for the first, 0.113 KA relative to UGCAUGU for the second.

First: B7
Second: B8
The binding signal of the first is lower: 0.106 KA relative to UGCAUGU for the first, 0.123 KA relative to UGCAUGU for the second.

First: B9
Second: B10
The binding signal of the first is lower: 0.081 KA relative to UGCAUGU for the first, 0.2 KA relative to UGCAUGU for the second.

First: B11
Second: B12
The binding signal of the first is higher: 0.091 KA relative to UGCAUGU for the first, 0.0862 KA relative to UGCAUGU for the second.

First: B13
Second: B14
The binding signal of the first is higher: 0.0885 KA relative to UGCAUGU for the first, 0.0598 KA relative to UGCAUGU for the second.

First: B15
Second: B16
The binding signal of the first is lower: 0.0593 KA relative to UGCAUGU for the first, 0.08 KA relative to UGCAUGU for the second.

Compared with B17, B18 is higher in binding signal: 0.121 KA relative to UGCAUGU for the first, 0.122 KA relative to UGCAUGU for the second.

Compared with B19, B20 is lower in binding signal: 0.0906 KA relative to UGCAUGU for the first, 0.0894 KA relative to UGCAUGU for the second.

Compared with B21, B22 is higher in binding signal: 0.0889 KA relative to UGCAUGU for the first, 0.118 KA relative to UGCAUGU for the second.

Compared with B23, B24 is lower in binding signal: 0.101 KA relative to UGCAUGU for the first, 0.0858 KA relative to UGCAUGU for the second.

First: B25
Second: B26
The binding signal of the first is lower: 0.126 KA relative to UGCAUGU for the first, 0.132 KA relative to UGCAUGU for the second.

Compared with B27, B28 is lower in binding signal: 0.128 KA relative to UGCAUGU for the first, 0.127 KA relative to UGCAUGU for the second.

First: B29
Second: B30
The binding signal of the first is lower: 0.0924 KA relative to UGCAUGU for the first, 0.182 KA relative to UGCAUGU for the second.

In the case of B31, the binding signal is reported as 0.0886 KA relative to UGCAUGU.
